Assay results published in PubChem BioAssay AID1030 (National Center for Advancing Translational Sciences (NCATS), 2008).
The campaign covered roughly 220,000 compounds. About 16,000 (7.3%) were called active. The shares of active, inactive and inconclusive entries below differ from those in the screen. Calls follow the shape of the dose curve; as a rule, active = well fitted inhibition curve with a large enough effect (not every such curve was filed as active); inconclusive = small, poorly fitted or top-dose-only effect, or another doubt; inactive = no such curve, though single readings can be large or run the other way. Potencies of inconclusive entries are left out as doubtful fits.

These molecules were tested against Aldehyde dehydrogenase 1A1 (Homo sapiens) (UniProt P00352) (assay: qHTS Assay for Inhibitors of Aldehyde Dehydrogenase 1 (ALDH1A1)). Conditions: Purified ALDH1A1, NADH fluorescence, propionaldehyde substrate; series mostly up to 75.3 µM; activity, negative = inhibition: at the top concentration.
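For activity, negative = inhibition in this document: plate controls were no enzyme wells and a reference inhibitor.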
Potency is read from the fitted curve at half-maximal effect; tags tell the direction and shape of the fitted curve.

UniProt P00352, sequence (P00352 whole entry, looked up): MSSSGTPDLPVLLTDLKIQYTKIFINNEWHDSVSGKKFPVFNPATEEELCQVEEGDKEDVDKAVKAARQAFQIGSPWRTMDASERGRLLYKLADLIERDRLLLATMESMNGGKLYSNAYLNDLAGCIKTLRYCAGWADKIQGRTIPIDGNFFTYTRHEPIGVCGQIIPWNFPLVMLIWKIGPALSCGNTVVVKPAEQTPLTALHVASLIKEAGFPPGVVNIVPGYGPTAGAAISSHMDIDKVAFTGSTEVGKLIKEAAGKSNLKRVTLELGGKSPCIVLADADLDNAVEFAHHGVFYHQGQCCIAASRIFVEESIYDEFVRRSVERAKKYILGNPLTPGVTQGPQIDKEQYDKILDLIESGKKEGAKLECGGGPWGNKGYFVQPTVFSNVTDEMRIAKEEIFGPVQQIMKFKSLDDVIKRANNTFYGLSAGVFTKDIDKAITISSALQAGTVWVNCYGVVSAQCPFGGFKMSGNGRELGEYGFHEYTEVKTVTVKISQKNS

SMILES	activity, negative = inhibition	Potency
COc1ccc(NC(=O)/C(=C\c2cc(OC)c(OC)cc2[N+](=O)[O-])NC(=O)c2ccccc2)cc1	inactive: -5.86%	–
O=C1c2nc3ccccn3c2C(=O)N1Cc1ccccc1	–	active: 17.8 µM
C#Cc1ccc([C@@H]2C=C(C(=O)OCC=C)O[C@H](OCCCCO)C2)cc1	–	active: 15.8 µM
CN(C)c1ccc(/C=C/c2cc[n+](C)cc2)cc1	–	active: 14.1 µM
O=C(/C=C/c1ccc(Cl)cc1)NCCN1CCOCC1	inactive: 15.2%	–
Cc1ncsc1C(=O)N1N=C2/C(=C/c3ccccc3)CCCC2C1c1ccccc1 (centres undefined)	–	inconclusive [inhibitor, single point]
Cc1ccc(OCCOCCn2cnc3ccccc3c2=O)c([N+](=O)[O-])c1	–	inconclusive [inhibitor, partial curve]
c1ccccc1	–	inactive
COc1ccc(N(CC(=O)Nc2ccccc2F)S(=O)(=O)c2ccc(C)c([N+](=O)[O-])c2)cc1	–	active: 11.2 µM
Fc1ccccc1-c1nc2ccccc2[nH]1	–	inconclusive [inhibitor, partial curve]
CCOC(=O)/C(=C/c1ccco1)NC(=O)c1ccc(Br)o1	–	inconclusive [inhibitor, single point]
CC(C)OCCCNC(=O)C(NS(=O)(=O)c1ccc2c(c1)c(=O)n(C)c(=O)n2C)c1ccccc1 (centres undefined)	–	inconclusive [inhibitor, single point]
Cc1ccc2[nH]c(=O)c(Cc3ccccc3)c(O)c2c1	–	inconclusive [inhibitor, single point]
CN1CCN(/N=C/c2nc(-c3cccc([N+](=O)[O-])c3)n3ccccc23)CC1	–	inconclusive [inhibitor, single point]
O=C(CN1CCN(c2ccc(F)cc2)CC1)Nc1cccc(C(F)(F)F)c1	–	inconclusive [inhibitor, single point]
C=CCNC(=O)/C(C#N)=C/c1ccccc1[N+](=O)[O-]	–	inconclusive [inhibitor, single point]
CN(C)S(=O)(=O)c1cccc(N=C2NN=C(c3ccccc3)CS2)c1	–	inconclusive [inhibitor, single point]
O=C(O)CSc1nnnn1-c1ccccc1	inactive: 3.24%	–
CCOC(=O)N/N=C(C)/C=C/c1ccco1	–	active: 10 µM
CC(C)(C)c1ccc(C(=O)C2CCCN(C(=O)CN3CCCC3=O)C2)cc1 (centres undefined)	–	inconclusive [inhibitor, single point]
O=C(COC(=O)c1ccccc1NS(=O)(=O)c1cccs1)NCC12CC3CC(CC(C3)C1)C2	–	inconclusive [inhibitor, single point]
C=CCNC(=O)/C(C#N)=C/c1c(N(Cc2ccccc2)Cc2ccccc2)nc2ccccn2c1=O	–	active: 7.08 µM
COc1ccc(C(=O)NC(=S)Nc2ccccc2N2CCN(S(C)(=O)=O)CC2)cc1OC	–	active: 0.501 µM
CC(=O)CCn1cnc([N+](=O)[O-])n1	inactive: -3.14%	–
CCCCn1nnc(NC(=O)COc2ccc(Cl)c(C)c2)n1	–	inconclusive [inhibitor, single point]
c1coc(-c2nn3c(Cn4nnc5ccccc54)nnc3s2)c1	–	active: 10 µM
Cc1cc2c(c(N3CCOCC3)n1)C(=O)OC2	–	inconclusive [inhibitor, single point]

SMILES	activity, negative = inhibition	Potency
CCCCn1c(O)c(N=Nc2ccccn2)c2ccccc21	–	inconclusive [inhibitor, partial curve]
COc1ccc(OCc2nc3c4c(ncn3n2)-c2ccccc2CC42CCCC2)cc1	–	inconclusive [inhibitor, single point]
CC(C)N(CCNS(=O)(=O)c1ccc(Cl)cc1)C(C)C	–	inconclusive [inhibitor, single point]
O=C(c1cccs1)N1CCN=C1SCc1ccccc1F	inactive: 2.3%	–
CC(C)NC(=O)c1cc2cc([N+](=O)[O-])ccc2s1	inactive: -5.85%	–
COc1ccc(N2CC(C)Cn3c2nc2c3c(=O)n(Cc3ccc(C)cc3)c(=O)n2C)c(OC)c1 (centres undefined)	–	inconclusive [inhibitor, single point]
CCOC(=O)c1ccc(NC(=O)c2c(C)[nH]c(C(=O)OCC)c2C)cc1	inactive: 1.6%	–
CCC1C(=O)NCCN1Cc1nc(-c2ccc(C)s2)oc1C (centres undefined)	–	inconclusive [inhibitor, single point]
CCOC(=O)N1CCN(c2c(NCCOC)c(=O)c2=O)CC1	–	active: 31.6 µM
COc1ccc(-c2csc(CCn3nc(C)cc3C)n2)cc1	inactive: 1.67%	–
COc1ccc(-c2nc3cnc(N4CCN(C)CC4)nc3n(C3CC3)c2=O)cc1	–	inconclusive [inhibitor, partial curve]
Cc1ccc(NC(=O)CN2CCCN(S(=O)(=O)c3ccc(Br)s3)CC2)cc1	–	active: 20 µM
Cc1cc(C)c2c(=O)[nH]c(SCC(=O)N3CCOCC3)nc2n1	–	inconclusive [inhibitor, single point]
COc1cc(C(=O)N2c3ccccc3CC2C)cc(OC)c1OC (centres undefined)	inactive: 1.24%	–
COCCN1C(=O)/C(=C/c2cc3c(cc2Br)OCO3)NC1=S	–	active: 0.199 µM
CCN1C(=O)/C(=C\c2ccc3c(c2)OCO3)C(C(=O)OC)=C1C	inactive: 0.991%	–
Cc1nc(CS(=O)(=O)c2ccc(Cl)cc2)cc(Sc2ccc(Cl)cc2)n1	–	inconclusive [inhibitor, partial curve]
N#Cc1ccc2ccn(CC(=O)NCc3ccco3)c2c1	–	inconclusive [inhibitor, single point]
COc1ccc(-c2nn(-c3ccccc3)cc2/C=C/C(=O)OCC(=O)Nc2ccc(C#N)cc2)cc1	–	inconclusive [inhibitor, single point]
CCC12CN(C(=O)c3ccc(OC)cc3)CC(CC)(CN(C(=O)c3ccc(OC)cc3)C1)C2=O	inactive: 0.727%	–
Cc1ccc(NC(=S)NCC(C)C)cc1	inactive: 13%	–
CC(NC(=O)CCc1ccccc1)c1cc2c(cc1Cl)OCCO2 (centres undefined)	–	inconclusive [inhibitor, single point]
C=CCOc1ccccc1CNCCNC(=O)c1nonc1N	inactive: -1.12%	–
Cc1cccc(-n2c(Cc3ccccc3)nnc2SCc2ccc([N+](=O)[O-])cc2)c1	–	inconclusive [inhibitor, single point]
CCN(C(=O)c1cc2ccccc2oc1=O)c1cccc(C)c1	–	active: 14.1 µM
OC1(c2ccccc2)c2ccccc2-c2ncccc21 (centres undefined)	inactive: 5.44%	–
FC(F)C(F)(F)C1=CC(c2cccs2)=NCCN1	–	inconclusive [inhibitor, single point]

SMILES	activity, negative = inhibition	Potency
Cc1ccccc1[C@@H]1C(C#N)=C(N)S[C@H]1C(=O)c1ccccc1	–	inconclusive [inhibitor, partial curve]
S=C(NCc1ccccc1)NCc1ccc2c(c1)OCO2	–	inconclusive [inhibitor, single point]
N[C@H](CC(=O)O)C(=O)O	–	inactive
O=C(Nc1cccc(C(=O)N2CCCC2)c1)c1ccccc1Cl	–	active: 3.98 µM
Cc1ccccc1N1CCN(C(=S)c2ccccc2)CC1	inactive: 0.732%	–
Cc1ccc(NCc2ccccc2O)c(C)c1	inactive: -0.822%	–
O=C(Nc1ccc([N+](=O)[O-])cc1Br)c1cccnc1	inactive: 1.32%	–
N#CCCn1c(SCC(=O)NCc2ccco2)nc2ccccc21	–	inconclusive [inhibitor, single point]
COc1ccc(S(=O)(=O)N2CCOCC2)cc1N=Nc1sc(N)nc1-c1ccccc1	inactive: -2.89%	–
CCOC(=O)c1sc(N)c(C(N)=O)c1C	–	inconclusive [inhibitor, single point]
COC(=O)c1ccc(COc2cccc(C)c2C)cc1	inactive: 5.92%	–
O=C(Nc1cccnc1)c1ccc(NS(=O)(=O)c2cc([N+](=O)[O-])ccc2Cl)cc1	–	inconclusive [inhibitor, single point]
CCCC/C(C)=N/NC(=O)c1cn(-c2ccccc2)nc1-c1ccccc1	–	active: 0.562 µM
CCN(CC1COc2ccccc2O1)C(=S)NC1CC2CCC1C2 (centres undefined)	–	inconclusive [inhibitor, single point]
CCC1(C)Cc2sc3c(=O)[nH]c(=S)[nH]c3c2CO1 (centres undefined)	–	inconclusive [inhibitor, single point]
COc1ccc(-c2csc(Nc3ccc(C)cn3)n2)cc1OC	inactive: 5.37%	–
CCCc1cc(NCC2CCCO2)n2c(nc3ccccc32)c1C#N (centres undefined)	–	inconclusive [inhibitor, partial curve]
CCOC(=O)c1[nH]c2cc3c(cc2c1NC(=O)CN1CCCC1)OCO3	–	inconclusive [inhibitor, partial curve]
CCCCCOC(=O)C1=C(C)Nc2nnnn2C1c1ccc(OC)c(OC)c1OC (centres undefined)	inactive: -12.1%	–
Cc1ccc(N/C(N)=N/c2nc(C)cc(N3CCCCC3)n2)c(C)c1	inactive: -1.46%	–
Nc1c(S(=O)(=O)c2ccccc2)c2nc3ccccc3nc2n1CCN1CCOCC1	–	inconclusive [inhibitor, partial curve]
COc1ccccc1N1CCN(CCc2n[nH]c(=S)n2-c2ccccc2)CC1	inactive: -12.2%	–
O=C(CSc1nc2cccnc2n1Cc1ccccc1)NCc1ccco1	–	active: 25.1 µM
COc1cccc(CNc2ccc(S(=O)(=O)Nc3nccs3)cc2)c1O	–	inconclusive [inhibitor, single point]
Cc1ccc(S(=O)(=O)N2CCOCC2)cc1C(=O)Nc1ccc(S(=O)(=O)Nc2nccs2)cc1	inactive: -12.8%	–
